# Laboratory results as given in PubChem BioAssay AID1569 (National Center for Advancing Translational Sciences (NCATS), 2009).
# This list was built around the results that the source calls inconclusive (neither active nor inactive); the mix of calls is not that of the screen. Potencies of inconclusive entries are doubtful fits and often do not repeat. The source made the active and inactive calls. The call rests on the fitted dose curve; in most records, active means well fitted inhibition curve with a large enough effect; inconclusive means small, poorly fitted or top-dose-only effect, or effect the other way, or another doubt; inactive means no such curve, though single readings can be large or run the other way.
# Assay: Confirmation Concentration-Response Assay for lipid storage modulators; further: nearly all actives have a fitted effect of over 80% in size;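 on activity change, negative = inhibition: -100% = full block of lipid deposition by 20 µM Triacsin C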
# Conditions: Drosophila S3 cells, lipid droplet BODIPY/CellTracker ratio, 18-24 h; activity change, negative = inhibition: at 46.1 µM (top of the series)
# Procedure, shortened: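 Cells at 5,000/well received compound as a titration plus oleic acid (added as 400 uM solution) and were incubated 18–24 h at 24 °C. BODIPY 493/503 lipid signal and CellTracker Red cell count were read by 488-nm laser-scanning cytometry. Activity was normalised to 20 uM Triacsin C.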
# Potency means the concentration at half of the fitted maximal effect; tags describe the fitted curve by direction and shape.
Structure (SMILES),"activity change, negative = inhibition",Potency
COc1ccc(CCNC(=O)CSc2nnc(NC(C)=O)s2)cc1OC,inconclusive: 40% [activator],–
COc1ccc(OC)c(-c2nc3cc4ccccc4cc3nc2-c2ccccc2)c1,–,"inconclusive: 3.97 µM [activator, partial curve]"
COc1ccc(CCNC(=O)CSc2nnc(-c3ccc(F)cc3)o2)cc1OC,–,"inconclusive: 5.6 µM [activator, partial curve, poor fit]"
COc1cccc(/C=C/C(=O)NCCc2ccc(OC)c(OC)c2)c1,–,active: 1.77 µM
Cc1ccc2[nH]c3c(NCCCN4CCCC4=O)ncnc3c2c1,–,"inconclusive: 14.1 µM [activator, partial curve]"
CC(C)Cc1ccc(S(=O)(=O)N2CCN(c3ccccn3)CC2)cc1,–,"inconclusive: 8.88 µM [activator, full curve, poor fit]"
COc1ccc(CN(Cc2cc3cc(OC)c(OC)cc3[nH]c2=O)C(=O)NC2CCCCC2)cc1,–,"inconclusive: 2.81 µM [activator, full curve, poor fit]"
CCC(C(=O)NCCCc1ccccc1)n1nc(C)c2c(C)n(-c3ccccc3)nc2c1=O (centres undefined),–,"inconclusive: 9.96 µM [activator, partial curve]"
Cc1ccc(C)c(NC(=O)c2ccc3ccccc3n2)c1,–,"inconclusive: 0.281 µM [activator, full curve]"
